# Measured values as given in publication PMC12136788.
# This is one part of the list.
# T1: UNK ZnF1-3 (human, UniProt Q9C0B0 31-174)
# T1 sequence: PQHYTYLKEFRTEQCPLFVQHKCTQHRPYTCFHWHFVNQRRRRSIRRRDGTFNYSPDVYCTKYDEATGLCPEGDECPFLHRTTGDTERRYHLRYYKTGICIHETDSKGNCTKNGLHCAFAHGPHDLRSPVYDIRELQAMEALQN
# B1: 91052124_91052635_1258_ncRNA_ENSMUSG00000002109_ENSMUST00000150427|mouse|control|control (ssRNA)
# RNA: GGGAGUUCUACAGUCCGACGAUCUCUGUGACCCAUCUUCCUCUUGGCUCCAAAUGAGAAUAUGAUAACCCAUAGUAGAGGCCAGUGUGUCUCCCAUAGGAUUGAACUCAUUGAGCGAAGUAAUACCGGAGUAUCCUGGAUCAUCAACAGAGGAUUGAGCAUCA
# B2: chr19:59067291:59067292:-_ENSG00000130725_ENST00000253023|hu_mus|FALSE|FALSE (ssRNA)
# RNA: GGGAGUUCUACAGUCCGACGAUCCAGGUCGGGGGGGAGGCAGCACCGACCAUAAUCACGUGGUGGUCAAAAAAAAAAUAACUAGGGGCAGGUGACAGGGAAGAGAGGCAAGGCCAAGGCAGGGGCCAAGGCUACCCCACACACCAACAGAGGAUUGAGCAUCA
# B3: chrX:140365796:140365797:-_ENSMUSG00000031285_ENSMUST00000033642|mus_mus|mus_mus_mus_hu_False|18_48 (ssRNA)
# RNA: GGGAGUUCUACAGUCCGACGAUCCUUCUCAUUACUCAGUGCCUGCAAGGUUCUGGUUCGGUAGAAGCUACAGUGGGCGCUGUGAGUGGGACUUGGAAACCCAUUCAUCCGGGAGCCUCUCAUAUUUCUGGAUGUCUUAUCUCUCAACAGAGGAUUGAGCAUCA
# B4: chr1:225611761:225611762:-_ENSG00000143815_ENST00000272163|hu_mus|hu_hu_hu_mus_True|38_108 (ssRNA)
# RNA: GGGAGUUCUACAGUCCGACGAUCCCAGGCCAUCGACCUCUGACCACUUCACCCUCAACAAACUUCCUACUUGGCAUUUUCUAAAAUUAGUCUGGCCCAGGUUCCGGGGGAACUCCAGCCACUCCAGGACAGUCACCAGCAGCCCAACAGAGGAUUGAGCAUCA
# B5: 57885200_57885320_1821_CDS_ENSMUSG00000022361_ENSMUST00000070143|mouse|control|control (ssRNA)
# RNA: GGGAGUUCUACAGUCCGACGAUCUACUUGAGUAAGGACCAGACCUGGCUGACCAACAAUUUGGCAUGUCUGUAAGAUAGAUGGUAACCCGUUACUCCCUGUGGAAAUGUGUGUAGGAAUAACAGUUAUGGUCUGAGGUACAGUCAACAGAGGAUUGAGCAUCA
# B6: chr4:103517381:103517382:+_ENSG00000109320_ENST00000505458|hu_mus|FALSE|FALSE (ssRNA)
# RNA: GGGAGUUCUACAGUCCGACGAUCAGGCGAUGGGUUCCGUCUUGGUGCAGGCCAUGGGCAGGCUGGGCCCUUCACCUUCAGUUUCCUUCUCAGGGAGAGUCAGACUCUCCUCGUCAUCACUCUUGGCACAAUCUUUAGGGCCAUCAACAGAGGAUUGAGCAUCA
# Molecular target: T1, UNK ZnF1-3
# Assay: nsRBNS (natural sequence RNA bind-n-seq); RBNS binding buffer (assumed for nsRBNS): 25 mM Tris pH 7.5, 150 mM KCl, 3 mM MgCl2, 0.01% Triton X-100, 500 ug/ml BSA, 20 U/ml SUPERase-In, 4 C; UNK is unkempt and MSI1 is Musashi-1; names of the RNAs are library labels; protein concentration not given here; high values mean tight binding
row,Binder,binding signal [enrichment R]
1,B1,1.18
2,B2,2.42
3,B3,0.668
4,B4,1.56
5,B5,0.718
6,B6,0.617
